The source of these data is a collection of fitness landscapes (doi:10.1016/j.celrep.2020.107928).

The chains are these.
B1: Caulobacter ParB omega fusion; a variant is named by its letters at X, in order, B8GW30 (parent)
chain: MESVVVGEPGMSEGRRGLGRGLSALLGEVDAAPAQAPGEQLGGSREAPIEILQRNPDQPRRTFREEDLEDLSNSIREKGVLQPILVRPSPDTAGEYQIVAGERAWRAAQRAGLKTVPIMVRELDDLAVLEIGIIENVQRADLNVLEEALSYKVLMEKFERTQENIAQTIGKSXSHVANXMRLLXLPDEVQSYLVSGELTAXHARAIAAAADPVALAKQIIEGGLSVRETEALARKAPNLSAGKSKGGRPPRVKDTDTQALESDLSSVLGLDVSIDHRGSTGTLTITYATLEQLDDLCNRLTRGI

In all, about 81,000 sequences were measured (“one-hybrid fitness for binding NBS DNA”: median about -0.1, highest 2% from about 0.36 on). The list shows a part of the results. Some results are limits rather than exact numbers.

In this assay the parent is B1. Kind of assay: one-hybrid fitness for binding NBS DNA (the Noc-binding site; scaled: cognate 1, non-cognate 0); higher = stronger binding. The note with it: with NBS DNA site. The procedure, abridged:
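Pre- and post-selection plasmids were Illumina-sequenced, three replicate libraries were pooled, and any variant with under 10 reads was removed. The libraries were Caulobacter ParB with four specificity codons randomised, selected in E. coli USO through a HIS3 reporter whose site is 19 bp from the promoter. Cells grew 48 hours at 37°C on M9 without histidine, with 0.1 mM IPTG and 5 mM 3-AT. Fitness is the log change in variant-to-wild-type read ratio, rescaled against cognate and non-cognate.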
Consider HYRS, for which the “one-hybrid fitness for binding NBS DNA” value is no more than 0.2.
For PWPR the value was no more than 0.2; for NYMG, no more than 0.2.
For SVKG the value was no more than 0.2; for FGYC, no more than 0.2.
For VAVV, the “one-hybrid fitness for binding NBS DNA” value is no more than 0.2.
KSSH: the “one-hybrid fitness for binding NBS DNA” value is no more than 0.2.
On to QEAV, for which the “one-hybrid fitness for binding NBS DNA” value was no more than 0.2.
As to QLGP, the “one-hybrid fitness for binding NBS DNA” value was no more than 0.2.
With KNGC, the “one-hybrid fitness for binding NBS DNA” value is no more than 0.2.
For TRKW, the “one-hybrid fitness for binding NBS DNA” value was no more than 0.2.
On to RGMS, for which the “one-hybrid fitness for binding NBS DNA” value was no more than 0.2.
With RMTI the figure was no more than 0.2.
Regarding FWPS, the “one-hybrid fitness for binding NBS DNA” value amounted to 0.222.
For the variant FASR, the “one-hybrid fitness for binding NBS DNA” value is no more than 0.2.
With HHGA, the “one-hybrid fitness for binding NBS DNA” value was no more than 0.2.
For PSAS the value was no more than 0.2.
As for GWLR, the “one-hybrid fitness for binding NBS DNA” value was found to be 0.261.
In the case of HGSV, the “one-hybrid fitness for binding NBS DNA” value is no more than 0.2.
With STSF the figure was no more than 0.2.
On to RFQL, for which the “one-hybrid fitness for binding NBS DNA” value was no more than 0.2.
For TALM the value was no more than 0.2.
For TAQS the value was no more than 0.2.
With LKYR, the “one-hybrid fitness for binding NBS DNA” value was no more than 0.2.
For TNCT the value was no more than 0.2.
As to QHWN, the “one-hybrid fitness for binding NBS DNA” value is no more than 0.2.
For the variant VYSE, the “one-hybrid fitness for binding NBS DNA” value is no more than 0.2.
With PMVD the figure was no more than 0.2.
With RMGS the figure was 0.461.
Take QGQA: the “one-hybrid fitness for binding NBS DNA” value is no more than 0.2.
Regarding SNQC, the “one-hybrid fitness for binding NBS DNA” value was no more than 0.2.
With RHHG the figure was no more than 0.2.
For TKPL the value was no more than 0.2.
For the variant RYDA, the “one-hybrid fitness for binding NBS DNA” value is no more than 0.2.
With HERM the figure was no more than 0.2.
As for TTFA, the “one-hybrid fitness for binding NBS DNA” value was no more than 0.2.
Consider RHMQ, for which the “one-hybrid fitness for binding NBS DNA” value was no more than 0.2.
Consider KDKW, for which the “one-hybrid fitness for binding NBS DNA” value is no more than 0.2.
FKTI: the “one-hybrid fitness for binding NBS DNA” value is no more than 0.2.
As for DREE, the “one-hybrid fitness for binding NBS DNA” value was no more than 0.2.
Turning to GIFG, the “one-hybrid fitness for binding NBS DNA” value is no more than 0.2.
In the case of STIS, the “one-hybrid fitness for binding NBS DNA” value is no more than 0.2.
For FNSY the value was no more than 0.2.
As to PAHA, the “one-hybrid fitness for binding NBS DNA” value is no more than 0.2.
Turning to RFIR, the “one-hybrid fitness for binding NBS DNA” value was no more than 0.2.
For the variant TLWT, the “one-hybrid fitness for binding NBS DNA” value is no more than 0.2.
With PSPM the figure was no more than 0.2; with IGDC, no more than 0.2; with SQRA, no more than 0.2.
For KVMK the value was no more than 0.2; for SPDW, no more than 0.2; for GTIT, no more than 0.2.
For MRSC the value was no more than 0.2.
For AGLP, the “one-hybrid fitness for binding NBS DNA” value is no more than 0.2.
With YHKC, the “one-hybrid fitness for binding NBS DNA” value is no more than 0.2.
For DTVR the value was no more than 0.2.
Consider PKKL, for which the “one-hybrid fitness for binding NBS DNA” value is no more than 0.2.
RAHY: the “one-hybrid fitness for binding NBS DNA” value was no more than 0.2.
With PVSD the figure was no more than 0.2; with SIMT, no more than 0.2; with DRLD, no more than 0.2.
Take TNVI: the “one-hybrid fitness for binding NBS DNA” value was no more than 0.2.
Regarding GVPQ, the “one-hybrid fitness for binding NBS DNA” value was no more than 0.2.
With FYIR the figure was no more than 0.2; with DLTL, no more than 0.2; with GATC, no more than 0.2.
With WPIS the figure was no more than 0.2.
For TKLV the value was no more than 0.2; for VAIW, no more than 0.2.
On to TYLQ, for which the “one-hybrid fitness for binding NBS DNA” value was no more than 0.2.
For QDQY the value was no more than 0.2; for MTHW, no more than 0.2.
QTIM: the “one-hybrid fitness for binding NBS DNA” value was no more than 0.2.
With YTIM the figure was no more than 0.2; with QPVW, no more than 0.2.
On to KCHG, for which the “one-hybrid fitness for binding NBS DNA” value is no more than 0.2.
